Common to all, as to assay: yeast fitness gain over the viral ORF with no human partner (scaled fitness); higher = more likely to interact
One assay concerns the target SARS-CoV-2 ORF6. The protocol:
(§1)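 Split mouse DHFR complementation in pooled diploid yeast: human ORFeome clones carry one fragment and viral ORFs the other; barcoded lineages compete in 1 µg/mL methotrexate and fitness is read by barcode sequencing in up to three cultures.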

The next assay deals with SARS-CoV-2 ORF9B. Here is the method: as §1
Another assay deals with SARS-CoV-2 ORF8. Here is the method: as §1
A further assay addresses SARS-CoV-2 ORF7B. The protocol:
as §1

A further assay concerns the target SARS-CoV-2 ORF7A. The protocol:
as §1

The other results are listed elsewhere or left out. Interaction screen of human proteins with wild-type SARS-CoV-2 proteins by split-DHFR complementation in yeast, 1 µg/mL methotrexate. Value = fitness of the pair (three or more lineages) minus that of the viral protein without a human partner, on a scale set by negative (0) and fused positive (1) controls, mean of up to three cultures; higher = more likely to interact. Active = false discovery rate below 0.05 (one-sided t-test) in at least one culture. Nearly all pairs are not hits, and differences among them are mostly noise (correlation between cultures about 0.3); most hits were seen in one culture only. Human sequences are the Swiss-Prot entries looked up by gene name; the clone may be another isoform. NSP2 values were corrected by the authors for a growth advantage. Listed are human proteins with a hit and a random twelfth of the others.

B1: FAM3B, P58499 (protein)
chain: MRPLAGGLLKVVFVVFASLCAWYSGYLLAELIPDAPLSSAAYSIRSIGERPVLKAPVPKRQKCDHWTPCPSDTYAYRLLSGGGRSKYAKICFEDNLLMGEQLGNVARGINIAIVNYVTGNVTATRCFDMYEGDNSGPMTKFIQSAAPKSLLFMVTYDDGSTRLNNDAKNAIEALGSKEIRNMKFRSSWVFIAAKGLELPSEIQREKINHSDAKNNRYSGWPAEIQIEGCIPKERS
For B1, the yeast fitness gain in the assay with SARS-CoV-2 ORF6 is inactive: 0.0125; with SARS-CoV-2 ORF9B, inactive: -0.0981.

B2: TMEM40, Q8WWA1 (protein)
chain: METSASSSQPQDNSQVHRETEDVDYGETDFHKQDGKAGLFSQEQYERNKSSSSSSSSSSSSSSSSSSSSSESNDEDQQPRATGKHRRSLGAGYPHGNGSPGPGHGEPDVLKDELQLYGDAPGEVVPSGESGLRRRGSDPASGEVEASQLRRLNIKKDDEFFHFVLLCFAIGALLVCYHYYADWFMSLGVGLLTFASLETVGIYFGLVYRIHSVLQGFIPLFQKFRLTGFRKTD
For B2, the yeast fitness gain in the assay with SARS-CoV-2 ORF6 is inactive: -0.108.

B3: FMO2, Q99518 (protein)
chain: MAKKVAVIGAGVSGLISLKCCVDEGLEPTCFERTEDIGGVWRFKENVEDGRASIYQSVVTNTSKEMSCFSDFPMPEDFPNFLHNSKLLEYFRIFAKKFDLLKYIQFQTTVLSVRKCPDFSSSGQWKVVTQSNGKEQSAVFDAVMVCSGHHILPHIPLKSFPGMERFKGQYFHSRQYKHPDGFEGKRILVIGMGNSGSDIAVELSKNAAQVFISTRHGTWVMSRISEDGYPWDSVFHTRFRSMLRNVLPRTAVKWMIEQQMNRWFNHENYGLEPQNKYIMKEPVLNDDVPSRLLCGAIKVKSTVKELTETSAIFEDGTVEENIDVIIFATGYSFSFPFLEDSLVKVENNMVSLYKYIFPAHLDKSTLACIGLIQPLGSIFPTAELQARWVTRVFKGLCSLPSERTMMMDIIKRNEKRIDLFGESQSQTLQTNYVDYLDELALEIGAKPDFCSLLFKDPKLAVRLYFGPCNSYQYRLVGPGQWEGARNAIFTQKQRILKPLKTRALKDSSNFSVSFLLKILGLLAVVVAFFCQLQWS
For B3, in the assay with SARS-CoV-2 ORF9B, the yeast fitness gain is inactive: -0.358.

B4: MAGEF1, Q9HAY2 (protein)
chain: MLQTPESRGLPVPQAEGEKDGGHDGETRAPTASQERPKEELGAGREEGAAEPALTRKGARALAAKALARRRAYRRLNRTVAELVQFLLVKDKKKSPITRSEMVKYVIGDLKILFPDIIARAAEHLRYVFGFELKQFDRKHHTYILINKLKPLEEEEEEDLGGDGPRLGLLMMILGLIYMRGNSAREAQVWEMLRRLGVQPSKYHFLFGYPKRLIMEDFVQQRYLSYRRVPHTNPPEYEFSWGPRSNLEISKMEVLGFVAKLHKKEPQHWPVQYREALADEADRARAKARAEASMRARASARAGIHLW
Take B4: the yeast fitness gain with SARS-CoV-2 ORF8 is inactive: -0.0436.

B5: CACNG5, Q9UF02 (protein)
chain: MSACGRKALTLLSSVFAVCGLGLLGIAVSTDYWLYLEEGVIVPQNQSTEIKMSLHSGLWRVCFLAGEERGRCFTIEYVMPMNTQLTSESTVNVLKMIRSATPFPLVSLFFMFIGFILNNIGHIRPHRTILAFVSGIFFILSGLSLVVGLVLYISSINDEMLNRTKDAETYFNYKYGWSFAFAAISFLLTESAGVMSVYLFMKRYTAEDMYRPHPGFYRPRLSNCSDYSGQFLHPDAWVRGRSPSDISSEASLQMNSNYPALLKCPDYDQMSSSPC
Take B5: the yeast fitness gain is inactive: -0.0997 with SARS-CoV-2 ORF6 and inactive: 0.0959 with SARS-CoV-2 ORF9B.

B6: SF3B2, Q13435 (protein)
chain: MATEHPEPPKAELQLPPPPPPGHYGAWAAQELQAKLAEIGAPIQGNREELVERLQSYTRQTGIVLNRPVLRGEDGDKAAPPPMSAQLPGIPMPPPPLGLPPLQPPPPPPPPPPGLGLGFPMAHPPNLGPPPPLRVGEPVALSEEERLKLAQQQAALLMQQEERAKQQGDHSLKEHELLEQQKRAAVLLEQERQQEIAKMGTPVPRPPQDMGQIGVRTPLGPRVAAPVGPVGPTPTVLPMGAPVPRPRGPPPPPGDENREMDDPSVGPKIPQALEKILQLKESRQEEMNSQQEEEEMETDARSSLGQSASETEEDTVSVSKKEKNRKRRNRKKKKKPQRVRGVSSESSGDREKDSTRSRGSDSPAADVEIEYVTEEPEIYEPNFIFFKRIFEAFKLTDDVKKEKEKEPEKLDKLENSAAPKKKGFEEEHKDSDDDSSDDEQEKKPEAPKLSKKKLRRMNRFTVAELKQLVARPDVVEMHDVTAQDPKLLVHLKATRNSVPVPRHWCFKRKYLQGKRGIEKPPFELPDFIKRTGIQEMREALQEKEEQKTMKSKMREKVRPKMGKIDIDYQKLHDAFFKWQTKPKLTIHGDLYYEGKEFETRLKEKKPGDLSDELRISLGMPVGPNAHKVPPPWLIAMQRYGPPPSYPNLKIPGLNSPIPESCSFGYHAGGWGKPPVDETGKPLYGDVFGTNAAEFQTKTEEEEIDRTPWGELEPSDEESSEEEEEEESDEDKPDETGFITPADSGLITPGGFSSVPAGMETPELIELRKKKIEEAMDGSETPQLFTVLPEKRTATVGGAMMGSTHIYDMSTVMSRKGPAPELQGVEVALAPEELELDPMAMTQKYEEHVREQQAQVEKEDFSDMVAEHAAKQKQKKRKAQPQDSRGGSKKYKEFKF
B6: the yeast fitness gain is inactive: -0.17 with SARS-CoV-2 ORF8 and inactive: -0.167 with SARS-CoV-2 ORF9B.

B7: POMC, P01189 (protein)
chain: MPRSCCSRSGALLLALLLQASMEVRGWCLESSQCQDLTTESNLLECIRACKPDLSAETPMFPGNGDEQPLTENPRKYVMGHFRWDRFGRRNSSSSGSSGAGQKREDVSAGEDCGPLPEGGPEPRSDGAKPGPREGKRSYSMEHFRWGKPVGKKRRPVKVYPNGAEDESAEAFPLEFKRELTGQRLREGDGPDGPADDGAGAQADLEHSLLVAAEKKDEGPYRMEHFRWGSPPKDKRYGGFMTSEKSQTPLVTLFKNAIIKNAYKKGE
As for B7, the yeast fitness gain in the assay with SARS-CoV-2 ORF6 was inactive: 0.0039; with SARS-CoV-2 ORF8, inactive: 0.0363.

B8: OR5T1, Q8NG75 (protein)
chain: MSGLPSDMDLYKLQLNNFTEVTMFILISFTEEFDVQVFLFLLFLAIYLFTLIGNLGLVVPIIGDFWLHSPMYYFLGVLSFLDVCYSTVVTPKMLVNFLAKNKSISFLGCATQMFLACTFGTTECFLLAAMAYDRYVAIYNPLLYSVSMSPRVYVPLITASYVASILHATIHTVATFSLSFCGSNEIRHVFCNMPPLLAISCSDTHVIQLLFFYFVGSIEIVTILIVLISYGFILLAILKMQSAEGRRKVFSTCGAHLTGVTIYHGTILFMYVRPSSSYTSDNDMIVSIFYTIVIPMLNPIIYSLRNKDVKEAIKRLLVRNWFINKL
Take B8: the values for the yeast fitness gain with SARS-CoV-2 ORF6 and with SARS-CoV-2 ORF7B were inactive: -0.0609 and inactive: -0.102, respectively.

B9: TOPBP1, Q92547 (protein)
chain: MSRNDKEPFFVKFLKSSDNSKCFFKALESIKEFQSEEYLQIITEEEALKIKENDRSLYICDPFSGVVFDHLKKLGCRIVGPQVVIFCMHHQRCVPRAEHPVYNMVMSDVTISCTSLEKEKREEVHKYVQMMGGRVYRDLNVSVTHLIAGEVGSKKYLVAANLKKPILLPSWIKTLWEKSQEKKITRYTDINMEDFKCPIFLGCIICVTGLCGLDRKEVQQLTVKHGGQYMGQLKMNECTHLIVQEPKGQKYECAKRWNVHCVTTQWFFDSIEKGFCQDESIYKTEPRPEAKTMPNSSTPTSQINTIDSRTLSDVSNISNINASCVSESICNSLNSKLEPTLENLENLDVSAFQAPEDLLDGCRIYLCGFSGRKLDKLRRLINSGGGVRFNQLNEDVTHVIVGDYDDELKQFWNKSAHRPHVVGAKWLLECFSKGYMLSEEPYIHANYQPVEIPVSHKPESKAALLKKKNSSFSKKDFAPSEKHEQADEDLLSQYENGSSTVVEAKTSEARPFNDSTHAEPLNDSTHISLQEENQSSVSHCVPDVSTITEEGLFSQKSFLVLGFSNENESNIANIIKENAGKIMSLLSRTVADYAVVPLLGCEVEATVGEVVTNTWLVTCIDYQTLFDPKSNPLFTPVPVMTGMTPLEDCVISFSQCAGAEKESLTFLANLLGASVQEYFVRKSNAKKGMFASTHLILKERGGSKYEAAKKWNLPAVTIAWLLETARTGKRADESHFLIENSTKEERSLETEITNGINLNSDTAEHPGTRLQTHRKTVVTPLDMNRFQSKAFRAVVSQHARQVAASPAVGQPLQKEPSLHLDTPSKFLSKDKLFKPSFDVKDALAALETPGRPSQQKRKPSTPLSEVIVKNLQLALANSSRNAVALSASPQLKEAQSEKEEAPKPLHKVVVCVSKKLSKKQSELNGIAASLGADYRWSFDETVTHFIYQGRPNDTNREYKSVKERGVHIVSEHWLLDCAQECKHLPESLYPHTYNPKMSLDISAVQDGRLCNSRLLSAVSSTKDDEPDPLILEENDVDNMATNNKESAPSNGSGKNDSKGVLTQTLEMRENFQKQLQEIMSATSIVKPQGQRTSLSRSGCNSASSTPDSTRSARSGRSRVLEALRQSRQTVPDVNTEPSQNEQIIWDDPTAREERARLASNLQWPSCPTQYSELQVDIQNLEDSPFQKPLHDSEIAKQAVCDPGNIRVTEAPKHPISEELETPIKDSHLIPTPQAPSIAFPLANPPVAPHPREKIITIEETHEELKKQYIFQLSSLNPQERIDYCHLIEKLGGLVIEKQCFDPTCTHIVVGHPLRNEKYLASVAAGKWVLHRSYLEACRTAGHFVQEEDYEWGSSSILDVLTGINVQQRRLALAAMRWRKKIQQRQESGIVEGAFSGWKVILHVDQSREAGFKRLLQSGGAKVLPGHSVPLFKEATHLFSDLNKLKPDDSGVNIAEAAAQNVYCLRTEYIADYLMQESPPHVENYCLPEAISFIQNNKELGTGLSQKRKAPTEKNKIKRPRVH
As for B9, the values for the yeast fitness gain in the assay with SARS-CoV-2 ORF7A and in the assay with SARS-CoV-2 ORF9B were inactive: 0.0159 and inactive: 0.058, respectively.

B10: PTPLAD2, Q5VWC8 (protein)
chain: MGPLALPAWLQPRYRKNAYLFIYYLIQFCGHSWIFTNMTVRFFSFGKDSMVDTFYAIGLVMRLCQSVSLLELLHIYVGIESNHLLPRFLQLTERIIILFVVITSQEEVQEKYVVCVLFVFWNLLDMVRYTYSMLSVIGISYAVLTWLSQTLWMPIYPLCVLAEAFAIYQSLPYFESFGTYSTKLPFDLSIYFPYVLKIYLMMLFIGMYFTYSHLYSERRDILGIFPIKKKKM
As for B10, the yeast fitness gain in the assay with SARS-CoV-2 ORF9B was inactive: -0.0914.

B11: RGN, Q15493 (protein)
chain: MSSIKIECVLPENCRCGESPVWEEVSNSLLFVDIPAKKVCRWDSFTKQVQRVTMDAPVSSVALRQSGGYVATIGTKFCALNWKEQSAVVLATVDNDKKNNRFNDGKVDPAGRYFAGTMAEETAPAVLERHQGALYSLFPDHHVKKYFDQVDISNGLDWSLDHKIFYYIDSLSYSVDAFDYDLQTGQISNRRSVYKLEKEEQIPDGMCIDAEGKLWVACYNGGRVIRLDPVTGKRLQTVKLPVDKTTSCCFGGKNYSEMYVTCARDGMDPEGLLRQPEAGGIFKITGLGVKGIAPYSYAG
Turning to B11, the yeast fitness gain with SARS-CoV-2 ORF6 is inactive: -0.0973.

B12: SLC7A13, Q8TCU3 (protein)
chain: MDRGEKIQLKRVFGYWWGTSFLLINIIGAGIFVSPKGVLAYSCMNVGVSLCVWAGCAILAMTSTLCSAEISISFPCSGAQYYFLKRYFGSTVAFLNLWTSLFLGSGVVAGQALLLAEYSIQPFFPSCSVPKLPKKCLALAMLWIVGILTSRGVKEVTWLQIASSVLKVSILSFISLTGVVFLIRGKKENVERFQNAFDAELPDISHLIQAIFQGYFAYSGGACFTLIAGELKKPRTTIPKCIFTALPLVTVVYLLVNISYLTVLTPREILSSDAVAITWADRAFPSLAWIMPFAISTSLFSNLLISIFKSSRPIYLASQEGQLPLLFNTLNSHSSPFTAVLLLVTLGSLAIILTSLIDLINYIFFTGSLWSILLMIGILRRRYQEPNLSIPYKVFLSFPLATIVIDVGLVVIPLVKSPNVHYVYVLLLVLSGLLFYIPLIHFKIRLAWFEKMTCYLQLLFNICLPDVSEE
As to B12, in the assay with SARS-CoV-2 ORF9B, the yeast fitness gain was inactive: -0.252.

(Values after the supplement of paper PMC11741623.)
